± gives the standard deviation of the averaged measurements. The list shows a part of the results.

We go through 56 sequences from the supplement of paper PMC11417369.

The test has as its system PfAP2-I AP2 domain 3 (GST-tagged). Briefly: gcPBM binding intensity (ln(normalized median fluorescence intensity)); higher = stronger DNA binding. An outline of the steps:
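Probes on an Agilent 4 × 180k array were primer-extended, double-stranded and 36 bp long, taken from intergenic genomic regions, with negative controls added. GST-tagged P. falciparum DNA-binding domains from E. coli, about 25 μg on average, were applied to the array for 1 h in 1× PBS containing 1% milk, 0.2 mg/ml BSA, 0.5% salmon testes DNA and 0.03% Triton X-100. Binding intensity, obtained after Alexa488 anti-GST antibody detection and a 488 nm scan, is the highest Masliner-normalised natural-log median intensity across replicate spots of either probe orientation.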
On to “TATAAAATAAGACATGCATGTTATACATATATATTT [TGCATGCA_site156]”, for which the “gcPBM binding intensity (ln)” value was 7.58 ± 0.57.
For “AAACGTATGTTATTTACACACCCTTCCACTTTTATA [CACACA_site3337]”, the “gcPBM binding intensity (ln)” value is 7.89 ± 0.69.
Next, “ATGTTTTTTATTCTTCGTACGTATGAACGATAGTGT [XGTACX_site4225]”: 8.08 ± 0.59; “CATTATTATTTTATAACACACACATATATATTATAT [CACACA_site8405]”: 8.09 ± 0.38; “AAAAAAAAAAAAATTACACACATACATATAATAATA [CACACA_site8680]”: 7.75 ± 0.18.
Regarding “ATATTAAGAATAAACAGTACATATAATAAATACCAT [XGTACX_site5933]”, the “gcPBM binding intensity (ln)” value was 7.83 ± 0.61.
For “TTTGTGTATATATAATGTACATTATATTTTTATTAT [XGTACX_site6506]”, the “gcPBM binding intensity (ln)” value was determined as 8.13 ± 0.45.
Turning to “AAAAAAAATATACATACATGCATACATAAGTTTCTA [TGCATGCA_site998]”, the “gcPBM binding intensity (ln)” value amounted to 7.55 ± 0.73.
As to “TATATATATGGACACACACACACATATATATATATA [CACACA_site6121]”, the “gcPBM binding intensity (ln)” value stood at 9.2 ± 0.3.
As to “ATTAAAAAAAAAGAGCGTACAAATAATTACTTCTTT [XGTACX_site8262]”, the “gcPBM binding intensity (ln)” value came out at 7.83 ± 0.3.
As for “TATAAATTTATAAATAGTACATATATTTATATATAT [XGTACX_site6433]”, the “gcPBM binding intensity (ln)” value worked out at 8.12 ± 0.64.
Next, “CAGATAGACTTATATGCATGCATTCACCTGCCAACA [TGCATGCA_site158]”: 8.31 ± 0.92; “ATATTACATAATATATGTACACACGCAAATACTTAT [XGTACX_site671]”: 7.95 ± 0.35.
Take “TAAGCATAAATGTATACATGCGATGCATACACATAT [TGCATGCA_site749]”: the “gcPBM binding intensity (ln)” value was determined as 7.39 ± 0.64.
Turning to “ATGAAATTATATTGGGGTACGTCAAAAAAGGAGATA [XGTACX_site7451]”, the “gcPBM binding intensity (ln)” value came out at 8.19 ± 0.39.
Next, “GGGTATATATTATTATGTACACATGTATAAAATAAG [XGTACX_site2633]”: 8.02 ± 0.3; “ATTCTATATACACGCACACACACTTATATATATATA [CACACA_site3322]”: 9.18 ± 0.23.
“TTATTATTATATGAATGTACTTAAAAATACATTTTG [XGTACX_site2959]”: the “gcPBM binding intensity (ln)” value is 7.43 ± 0.49.
For “CCCTTTTCTAAATATTGTACGTATAAATTATATTAC [XGTACX_site7676]”, the “gcPBM binding intensity (ln)” value amounted to 8.535 ± 0.007.
Regarding “TTGTTCTTTTTTTTTTTATTTTTTAATTTGAAAAGA [CACACA_negctrl_site209]”, the “gcPBM binding intensity (ln)” value was determined as 7.72 ± 0.5.
Next, “AAAAAGAAAAAACGAAGTACAATTATAAGATTATAT [XGTACX_site410]”: 7.56 ± 0.68; “GTACAGATAAATATTACACACATTTTCATTTTTAAC [CACACA_site5140]”: 7.86 ± 0.52.
For the sequence “TATGTGCCAAGACACACACACATATTTATATTTATA [CACACA_site6360]”, the “gcPBM binding intensity (ln)” value turned out to be 8.09 ± 0.4.
Regarding “TATGAAAAATATCTTTGTACTTAGAAATATATACAC [XGTACX_site5393]”, the “gcPBM binding intensity (ln)” value worked out at 7.86 ± 0.34.
Next, “GTGATTTAATTGTGTTGTACATATTTATAAATAAAA [XGTACX_site8966]”: 8.37 ± 0.13.
On to “AAAAAAAAAAGAAACACACACATTTGTATTTAATAT [CACACA_site5184]”, for which the “gcPBM binding intensity (ln)” value came out at 7.47 ± 0.67.
For “AGGACTAATATTTGAACACACATATAATATATACAT [CACACA_site3998]”, the “gcPBM binding intensity (ln)” value turned out to be 7.71 ± 0.61.
Take “AATATATACATATATGTACACACATTACAGATGTAC [CACACA_site8227]”: the “gcPBM binding intensity (ln)” value was found to be 7.9 ± 0.45.
As to “ATAGAATCTGGTAGCTGTACGAGTCGTAGAGTGCAG [XGTACX_site2026]”, the “gcPBM binding intensity (ln)” value was found to be 8.07 ± 0.57.
Regarding “TTTTTCTTGAATCGAAGTACTTAGGAGGGGATATTT [XGTACX_site2862]”, the “gcPBM binding intensity (ln)” value came out at 8.4 ± 0.34.
The value for “ACACAATATATATATTGTACATACACATATTTACTA [XGTACX_site1872]” was 8.13 ± 0.34.
Regarding “GAAATGTATATTTTTACATGCAAATAAAATATATAA [TGCATGCA_site439]”, the “gcPBM binding intensity (ln)” value came to 8.16 ± 0.7.
Next, “ATAACGACCTAGACGTGTACATACAAAGGAATGAAA [XGTACX_site4870]”: 7.89 ± 0.66.
Take “CATACACATAGACACACACACATATATACCTATATA [CACACA_site6644]”: the “gcPBM binding intensity (ln)” value turned out to be 8.01 ± 0.4.
Next, “GAATATAAACATATTACACACATCTATAGGTACATT [CACACA_site6983]”: 7.83 ± 0.52.
For the sequence “ATTTTTTAAAAAGTAACACACACTCTTATAAATAAC [CACACA_site7668]”, the “gcPBM binding intensity (ln)” value was 7.91 ± 0.52.
On to “AAAGTAAAAATATACTGTACAAATTTTTTCCCCTCT [XGTACX_site171]”, for which the “gcPBM binding intensity (ln)” value is 7.73 ± 0.52.
The value for “AAAGAAAGCACATACACACACAAAAAAAAAAAAGAA [CACACA_site776]” was 8.03 ± 0.32; that for “AAACAAAAAAAAAAAAAAAAAAAAAAAAAAAAAAAA [GTGCAC_negctrl_site254]” was 8.41 ± 1; that for “GATGCACTTTAAAAATGTACTTATACCTTTAATTGT [XGTACX_site6395]” was 7.87 ± 0.49.
In the case of “ATATTTATATACAAATGTACGCATATAATATATATA [XGTACX_site1232]”, the “gcPBM binding intensity (ln)” value was 8.3 ± 0.43.
“AAAAAAATATTATAATATATATATATATATATATAT [GTGCAC_negctrl_site399]”: the “gcPBM binding intensity (ln)” value is 9.33 ± 0.79.
Regarding “AGAGATTATAAAATATGTACTAAATATTAAATCTTA [XGTACX_site7050]”, the “gcPBM binding intensity (ln)” value came to 7.38 ± 0.42.
With “ATATATATACATACATACCTATGTATATGTGTAATT [GTGCAC_negctrl_site50]”, the “gcPBM binding intensity (ln)” value turned out to be 8.28 ± 0.45.
The value for “ATGGTAGTGATTAAAAGTACACGTAATTGTAAAAAT [XGTACX_site387]” was 8.25 ± 0.57.
For “TAAACAACTTATAAATGTACACATATTTTAATTACC [XGTACX_site5409]”, the “gcPBM binding intensity (ln)” value was 7.95 ± 0.38.
Next, “TAAAAAAAAAAAAATACACACACACCGATATATATA [CACACA_site8498]”: 8.17 ± 0.76; “AATAAAAACTAAACATGTACGCACATATATATATAT [XGTACX_site8096]”: 9.44 ± 0.16; “TAAGTGCATGAGATATGTACATATATAAAATATATA [XGTACX_site3294]”: 8.735 ± 0.007.
The value for “TCATAGTCTTAATGACTACACACCTAACTATGCATG [CACACA_site1839]” was 7.5 ± 0.54; that for “TTTGTTTTTTCTTTTTGTACATATACAAGATACGTA [XGTACX_site2309]” was 7.88 ± 0.49; that for “GTATATATTCATATGGAAAATAAAGGAGAAAACAAG [TGCATGCA_negctrl_site220]” was 8.32 ± 0.49.
Regarding “ATGTATGTATAATATACACACTCACAAGCATTCAAA [CACACA_site4306]”, the “gcPBM binding intensity (ln)” value stood at 7.67 ± 0.49.
On to “ACCCAACATATGTGTACACAGAAAATAAATATAATA [CACACA_site5901]”, for which the “gcPBM binding intensity (ln)” value amounted to 8.61 ± 0.057.
Take “TTTTGTAATTCTCTTCATATAATTTATATATATATA [CACACA_negctrl_site1825]”: the “gcPBM binding intensity (ln)” value worked out at 9.14 ± 0.23.
For the sequence “GTGTTTTTTTTAGATTGTACATATATATATATATAT [XGTACX_site4562]”, the “gcPBM binding intensity (ln)” value stood at 9.63 ± 0.23.
